Measurements published in publication PMC4336329 (PLoS ONE, 2015).
About 14,000 (4.5%) of roughly 310,000 compounds showed an effect of 50% or more. The effect is printed as a negative number. Some of the results follow.

Each compound was assayed against human ether-à-go-go-related gene (hERG) potassium channel (human, UniProt Q12809) (assay: primary screen, population patch clamp on CHO cells stably expressing hERG).
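Note: peak tail current of the secondary pulse compared with the same well before compound.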

human ether-à-go-go-related gene (hERG) potassium channel, sequence (Q12809 whole entry, looked up): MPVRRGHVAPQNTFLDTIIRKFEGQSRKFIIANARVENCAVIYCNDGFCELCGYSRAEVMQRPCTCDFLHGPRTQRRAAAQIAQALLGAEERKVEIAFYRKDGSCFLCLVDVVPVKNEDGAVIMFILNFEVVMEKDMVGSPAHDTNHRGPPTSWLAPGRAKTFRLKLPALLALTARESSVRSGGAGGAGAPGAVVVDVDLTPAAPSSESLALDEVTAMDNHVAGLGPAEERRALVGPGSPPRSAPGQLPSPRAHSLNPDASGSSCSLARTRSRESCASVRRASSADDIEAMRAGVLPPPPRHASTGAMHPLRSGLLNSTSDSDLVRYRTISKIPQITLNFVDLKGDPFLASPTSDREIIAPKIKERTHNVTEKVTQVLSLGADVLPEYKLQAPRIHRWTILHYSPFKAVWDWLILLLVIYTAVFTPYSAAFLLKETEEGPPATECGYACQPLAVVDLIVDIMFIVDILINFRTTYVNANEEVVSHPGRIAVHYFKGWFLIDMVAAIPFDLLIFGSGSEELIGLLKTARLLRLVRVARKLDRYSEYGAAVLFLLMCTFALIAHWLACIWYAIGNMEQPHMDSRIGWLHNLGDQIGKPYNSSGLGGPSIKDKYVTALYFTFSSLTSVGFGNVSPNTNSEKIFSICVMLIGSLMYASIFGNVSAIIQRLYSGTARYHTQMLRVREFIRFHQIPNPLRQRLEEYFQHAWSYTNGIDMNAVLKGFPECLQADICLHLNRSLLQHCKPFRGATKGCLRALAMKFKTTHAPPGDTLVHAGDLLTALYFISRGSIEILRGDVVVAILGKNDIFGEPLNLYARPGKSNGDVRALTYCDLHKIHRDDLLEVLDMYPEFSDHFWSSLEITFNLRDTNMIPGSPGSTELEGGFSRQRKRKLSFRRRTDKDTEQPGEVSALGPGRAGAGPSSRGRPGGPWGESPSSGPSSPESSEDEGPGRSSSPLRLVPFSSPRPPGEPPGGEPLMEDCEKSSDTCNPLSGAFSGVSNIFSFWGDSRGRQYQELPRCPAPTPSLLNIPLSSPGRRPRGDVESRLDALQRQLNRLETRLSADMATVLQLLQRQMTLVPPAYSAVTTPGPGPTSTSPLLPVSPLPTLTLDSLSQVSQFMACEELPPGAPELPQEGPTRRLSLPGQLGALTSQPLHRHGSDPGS

Going from `CCNc1nc(NC(C)C)nc(ON=C(C)C)n1` to `OCC(O)/C=N/Nc1nc(N2CCCCC2)nc(N2CCCCC2)n1` (stereo not drawn), the “hERG current change (%, negative = inhibition) at 10uM” value falls from 7.4% to 3.85%.

Going from `COC(=O)c1cc(S(=O)(=O)N2CCN(C3CCCCC3)CC2)c[nH]1` to `O=C(NCC(c1ccco1)N1CCCC1)c1cccc(S(=O)(=O)N2CCOCC2)c1` (stereo not drawn), the “hERG current change (%, negative = inhibition) at 10uM” value rises from -14.6% to -0.947%.

Going from `CCOC(=O)Cn1c(=O)cc(C)c2ccccc21` to `Cc1ccc(NC(=O)CCOc2ccccc2)c(C)c1`, the “hERG current change (%, negative = inhibition) at 10uM” value falls from 26.2% to 21%.

Going from `N#Cc1nc(Cc2ccccc2)oc1NCCc1ccccc1` to `O=C(Cc1ccccc1)NNC(=O)Cc1ccccc1`, the “hERG current change (%, negative = inhibition) at 10uM” value rises from -22.6% to 3.99%.

First: C/C=C/C1=CC(=O)C[C@H](c2ccc(OC)c(OC)c2)C1
Second: COc1ccc(CN2CCC(=O)N(CCO)CC2)cc1OC
The “hERG current change (%, negative = inhibition) at 10uM” value of the first is lower: -5.28% for the first, 3.26% for the second.

Compared with `COc1ccc(Nc2c3c(nc4c(-c5ccccc5)c(C)nn24)CCC3)cc1`, `COc1ccc(-n2cc(-c3ccccc3)nc2SC)cc1` is higher in “hERG current change (%, negative = inhibition) at 10uM” value: -0.517% for the first, 19.2% for the second.

Compared with `COc1ccccc1CNC(=O)COc1ccccc1C`, `O=C(Nc1ccccc1Oc1ccccc1)c1cccs1` is lower in “hERG current change (%, negative = inhibition) at 10uM” value: 7.53% for the first, -14.5% for the second.

First: NS(=O)(=O)c1cccc(NC(=O)CCS(=O)(=O)c2ccc(Cl)cc2)c1
Second: O=S(=O)(Nc1ccc(-n2cnnn2)cc1)c1ccc(Cl)cc1
The “hERG current change (%, negative = inhibition) at 10uM” value of the first is higher: 7.53% for the first, -18.2% for the second.

Going from `COC(=O)/C(=N\Nc1ccccc1)Sc1nnc(-c2ccc(OC)cc2)n1C` to `COc1ccc(OC)c(N(CC(=O)Nc2ccc3c(c2)OCO3)S(=O)(=O)c2ccccc2)c1`, the “hERG current change (%, negative = inhibition) at 10uM” value rises from -25.9% to -6.82%.

Compared with `O=C(CC(c1ccc(F)cc1)c1ccco1)N1CCCC1` (stereo not drawn), `O=C(O)c1nn(-c2ccc(F)cc2)ccc1=O` is higher in “hERG current change (%, negative = inhibition) at 10uM” value: -5.5% for the first, 27.8% for the second.

First: Cc1ccc2nc(SCC(=O)Nc3cc([N+](=O)[O-])ccc3F)[nH]c2c1
Second: Cc1ccc(C)c(N2CCN(CC(=O)Nc3ccc([N+](=O)[O-])cc3C(=O)Nc3ccccc3F)CC2)c1
The “hERG current change (%, negative = inhibition) at 10uM” value of the first is lower: -57.4% for the first, -18% for the second.

Compared with `O=C(CC1CCCC1)OCn1nnc2ccccc2c1=O`, `O=C(COc1ccc(Cl)cc1)NCc1nnc(SCC(=O)NC2CCCCC2)o1` is higher in “hERG current change (%, negative = inhibition) at 10uM” value: -15.7% for the first, 13.1% for the second.

Compared with `O=C(O)CCc1nn2c3ccccc3n(CC(=O)c3cccs3)c2nc1=O`, `Cc1nn(C(C)(C)C)c(OC(=O)c2cccs2)c1Sc1ccccc1` is lower in “hERG current change (%, negative = inhibition) at 10uM” value: 19.3% for the first, -8.8% for the second.

Compared with `CCN(CC)Cc1c(C(=O)N/N=C/c2cccc(OCc3cccc(Cl)c3)c2)nnn1-c1nonc1N`, `CCCc1cc(=O)oc2cc(OCC(=O)NC(Cc3ccc(Cl)cc3)C(=O)O)ccc12` (stereo not drawn) is higher in “hERG current change (%, negative = inhibition) at 10uM” value: -1.32% for the first, 15.3% for the second.

Going from `CCn1c(SCc2nc3ccccc3s2)nc2cc(S(=O)(=O)N3CCOCC3)ccc21` to `CCOC(=O)C1=C(CC)Nc2ccccc2N=C1NC(=O)c1ccc(S(=O)(=O)N2CCCC2)cc1`, the “hERG current change (%, negative = inhibition) at 10uM” value falls from -13% to -13.6%.

Compared with `Cc1ccc(S(=O)(=O)NCC(=O)N(CC(=O)NCC2CCCO2)C2CCCC2)cc1` (stereo not drawn), `Cc1ccc(Cl)cc1N1CCN(C(=O)COc2ccc(S(=O)(=O)NC(C)C)cc2)CC1` is lower in “hERG current change (%, negative = inhibition) at 10uM” value: -1.28% for the first, -4.92% for the second.

Compared with `O=[n+]1cc(-c2ccc(F)cc2)n([O-])c2c1CCC2`, `COc1ccc(C2=CC(=O)CC(c3ccc(F)cc3)C2)cn1` (stereo not drawn) is lower in “hERG current change (%, negative = inhibition) at 10uM” value: 10.5% for the first, -61.1% for the second.

Compared with `Cc1cccc(N=C2NC(=O)CS2)c1C`, `Cc1csc(C(C#N)C(=O)c2cc3ccccc3o2)n1` (stereo not drawn) is lower in “hERG current change (%, negative = inhibition) at 10uM” value: 2.78% for the first, -7.89% for the second.

Compared with `O=C1CCN(CCc2ccccc2)CCN1CCSc1ccccc1`, `CCc1ccccc1N1C(=O)CC(N2CCc3ccccc32)C1=O` (stereo not drawn) is higher in “hERG current change (%, negative = inhibition) at 10uM” value: -76.4% for the first, -16% for the second.

Compared with `CCC1CCC(C(=O)NNC(=O)OC)CC1` (stereo not drawn), `CC(C)N(CC(N)=O)c1ccc(S(=O)(=O)N2CCCC2)cn1` is lower in “hERG current change (%, negative = inhibition) at 10uM” value: -0.0223% for the first, -13.7% for the second.

First: CCN(CCNC(=O)c1ccc(C#N)cc1)c1cccc(C)c1
Second: CC(OC(=O)c1ccccn1)C(=O)Nc1ccc(C(F)(F)F)cc1 (stereo not drawn)
The “hERG current change (%, negative = inhibition) at 10uM” value of the first is lower: -36.3% for the first, -14.4% for the second.

First: CC(NC(=O)c1cc(-c2ccncc2)nc2ccc(Cl)cc12)C1CCCO1 (stereo not drawn)
Second: O=C(c1ccccc1)N1CC(COc2ccccc2)OC(c2ccco2)O1 (stereo not drawn)
The “hERG current change (%, negative = inhibition) at 10uM” value of the first is higher: 4.23% for the first, -14.4% for the second.

`Clc1ccc(NC2=NCCCS2)cc1Cl` was tested, and the “hERG current change (%, negative = inhibition) at 10uM” value was 9.94%.
